Experimental data taken from the supplement of paper PMC8728848.
Some of the results follow.

Assays:
Experiment in all cases: glycan array binding signal (z-score within array); higher = stronger binding
Settings in all cases: glycan notation: IUPAC condensed, linker removed
[1] = target: Gal(b1-4)GlcNAc(b1-3)Gal(b1-4)GlcNAc(b1-2)Man(a1-3)[Gal(b1-4)GlcNAc(b1-3)Gal(b1-4)GlcNAc(b1-2)Man(a1-6)]Man(b1-4)GlcNAc(b1-4)[Fuc(a1-6)]GlcNAc
Procedure, shortened: (§1)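 Glycan array binding is given as a within-array Z-score, which can be read as non-binding when negative. The arrays, 3228 of them, came from the Consortium for Functional Glycomics database and were retained only where the protein sequence was available. Z-scores were averaged across arrays of the same protein sequence at different concentrations or buffers and across linkers.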

[2] = target: Gal(b1-4)GlcNAc(b1-3)Gal(b1-4)GlcNAc(b1-2)[Gal(b1-4)GlcNAc(b1-3)Gal(b1-4)GlcNAc(b1-6)]Man(a1-6)[Gal(b1-4)GlcNAc(b1-3)Gal(b1-4)GlcNAc(b1-2)Man(a1-3)]Man(b1-4)GlcNAc(b1-4)GlcNAc
Procedure, shortened: as §1

[3] = target: Gal(b1-4)GlcNAc(b1-3)Gal(b1-4)GlcNAc(b1-2)[Gal(b1-4)GlcNAc(b1-3)Gal(b1-4)GlcNAc(b1-6)]Man(a1-6)[Gal(b1-4)GlcNAc(b1-3)Gal(b1-4)GlcNAc(b1-2)Man(a1-3)]Man(b1-4)GlcNAc(b1-4)[Fuc(a1-6)]GlcNAc
Procedure, shortened: as §1

[4] = target: Gal(b1-4)GlcNAc(b1-3)Gal(b1-4)GlcNAc(b1-3)Gal(b1-4)GlcNAc
Procedure, shortened: as §1

[5] = target: Gal(b1-4)GlcNAc(b1-3)Gal(b1-4)GlcNAc(b1-3)Gal(b1-4)GlcNAc(b1-2)Man(a1-3)[Gal(b1-4)GlcNAc(b1-3)Gal(b1-4)GlcNAc(b1-3)Gal(b1-4)GlcNAc(b1-2)Man(a1-6)]Man(b1-4)GlcNAc(b1-4)GlcNAc
Procedure, shortened: as §1

[6] = target: Gal(b1-4)GlcNAc(b1-3)Gal(b1-4)GlcNAc(b1-3)Gal(b1-4)GlcNAc(b1-2)Man(a1-3)[Gal(b1-4)GlcNAc(b1-3)Gal(b1-4)GlcNAc(b1-3)Gal(b1-4)GlcNAc(b1-2)Man(a1-6)]Man(b1-4)GlcNAc(b1-4)[Fuc(a1-6)]GlcNAc
Procedure, shortened: as §1

[7] = target: Gal(b1-4)GlcNAc(b1-3)Gal(b1-4)GlcNAc(b1-3)Gal(b1-4)GlcNAc(b1-2)[Gal(b1-4)GlcNAc(b1-3)Gal(b1-4)GlcNAc(b1-3)Gal(b1-4)GlcNAc(b1-6)]Man(a1-6)[Gal(b1-4)GlcNAc(b1-3)Gal(b1-4)GlcNAc(b1-3)Gal(b1-4)GlcNAc(b1-2)Man(a1-3)]Man(b1-4)GlcNAc(b1-4)[Fuc(a1-6)]GlcNAc
Procedure, shortened: as §1

[8] = target: Gal(b1-4)GlcNAc(b1-3)Gal(b1-4)GlcNAc(b1-3)Gal(b1-4)GlcNAc(b1-3)Gal(b1-4)GlcNAc(b1-2)Man(a1-3)[Gal(b1-4)GlcNAc(b1-3)Gal(b1-4)GlcNAc(b1-3)Gal(b1-4)GlcNAc(b1-3)Gal(b1-4)GlcNAc(b1-2)Man(a1-6)]Man(b1-4)GlcNAc(b1-4)GlcNAc
Procedure, shortened: as §1

[9] = target: Gal(b1-4)GlcNAc(b1-3)Gal(b1-4)GlcNAc(b1-3)Gal(b1-4)GlcNAc(b1-3)Gal(b1-4)GlcNAc(b1-2)Man(a1-3)[Gal(b1-4)GlcNAc(b1-3)Gal(b1-4)GlcNAc(b1-3)Gal(b1-4)GlcNAc(b1-3)Gal(b1-4)GlcNAc(b1-2)Man(a1-6)]Man(b1-4)GlcNAc(b1-4)[Fuc(a1-6)]GlcNAc
Procedure, shortened: as §1

[10] = target: Gal(b1-4)GlcNAc(b1-3)Gal(b1-4)GlcNAc(b1-3)Gal(b1-4)GlcNAc(b1-3)Gal(b1-4)GlcNAc(b1-2)[Gal(b1-4)GlcNAc(b1-3)Gal(b1-4)GlcNAc(b1-3)Gal(b1-4)GlcNAc(b1-3)Gal(b1-4)GlcNAc(b1-6)]Man(a1-6)[Gal(b1-4)GlcNAc(b1-3)Gal(b1-4)GlcNAc(b1-3)Gal(b1-4)GlcNAc(b1-3)Gal(b1-4)GlcNAc(b1-2)Man(a1-3)]Man(b1-4)GlcNAc(b1-4)[Fuc(a1-6)]GlcNAc
Procedure, shortened: as §1

[11] = target: Gal(b1-4)GlcNAc(b1-3)Gal(b1-4)GlcNAc(b1-3)Gal(b1-4)GlcNAc(b1-3)Gal(b1-4)GlcNAc(b1-3)Gal(b1-4)GlcNAc(b1-2)Man(a1-3)[Gal(b1-4)GlcNAc(b1-3)Gal(b1-4)GlcNAc(b1-3)Gal(b1-4)GlcNAc(b1-3)Gal(b1-4)GlcNAc(b1-3)Gal(b1-4)GlcNAc(b1-2)Man(a1-6)]Man(b1-4)GlcNAc(b1-4)GlcNAc
Procedure, shortened: as §1

[12] = target: Gal(b1-4)GlcNAc(b1-3)Gal(b1-4)GlcNAc(b1-3)Gal(b1-4)GlcNAc(b1-3)Gal(b1-4)GlcNAc(b1-3)Gal(b1-4)GlcNAc(b1-2)Man(a1-3)[Gal(b1-4)GlcNAc(b1-3)Gal(b1-4)GlcNAc(b1-3)Gal(b1-4)GlcNAc(b1-3)Gal(b1-4)GlcNAc(b1-3)Gal(b1-4)GlcNAc(b1-2)Man(a1-6)]Man(b1-4)GlcNAc(b1-4)[Fuc(a1-6)]GlcNAc
Procedure, shortened: as §1

[13] = target: Gal(b1-4)GlcNAc(b1-3)Gal(b1-4)GlcNAc(b1-3)Gal(b1-4)GlcNAc(b1-3)Gal(b1-4)GlcNAc(b1-3)Gal(b1-4)GlcNAc(b1-2)[Gal(b1-4)GlcNAc(b1-3)Gal(b1-4)GlcNAc(b1-3)Gal(b1-4)GlcNAc(b1-3)Gal(b1-4)GlcNAc(b1-3)Gal(b1-4)GlcNAc(b1-6)]Man(a1-6)[Gal(b1-4)GlcNAc(b1-3)Gal(b1-4)GlcNAc(b1-3)Gal(b1-4)GlcNAc(b1-3)Gal(b1-4)GlcNAc(b1-3)Gal(b1-4)GlcNAc(b1-2)Man(a1-3)]Man(b1-4)GlcNAc(b1-4)[Fuc(a1-6)]GlcNAc
Procedure, shortened: as §1

[14] = target: Gal(b1-4)GlcNAc(b1-3)Gal(b1-4)GlcNAc(b1-3)Gal(b1-4)GlcNAc(b1-3)Gal(b1-4)GlcNAc(b1-3)Gal(b1-4)GlcNAc(b1-3)Gal(b1-4)GlcNAc(b1-2)Man(a1-3)[Gal(b1-4)GlcNAc(b1-3)Gal(b1-4)GlcNAc(b1-3)Gal(b1-4)GlcNAc(b1-3)Gal(b1-4)GlcNAc(b1-3)Gal(b1-4)GlcNAc(b1-3)Gal(b1-4)GlcNAc(b1-2)Man(a1-6)]Man(b1-4)GlcNAc(b1-4)GlcNAc
Procedure, shortened: as §1

[15] = target: Gal(b1-4)GlcNAc(b1-3)Gal(b1-4)GlcNAc(b1-3)GalNAc
Procedure, shortened: as §1

[16] = target: Gal(b1-4)GlcNAc(b1-3)Gal(b1-4)GlcNAc(b1-3)[Gal(b1-4)GlcNAc(b1-3)Gal(b1-4)GlcNAc(b1-6)]GalNAc
Procedure, shortened: as §1

[17] = target: Gal(b1-4)GlcNAc(b1-3)Gal(b1-4)GlcNAc(b1-6)[Gal(b1-3)]GalNAc
Procedure, shortened: as §1

[18] = target: Gal(b1-4)GlcNAc(b1-3)Gal(b1-4)[Fuc(a1-3)]GlcNAc(b1-3)Gal(b1-4)[Fuc(a1-3)]GlcNAc
Procedure, shortened: as §1

[19] = target: Gal(b1-4)GlcNAc(b1-3)GalNAc
Procedure, shortened: as §1

[20] = target: Gal(b1-4)GlcNAc(b1-3)[Fuc(a1-3)GlcNAc(b1-6)]Gal(b1-4)Glc
Procedure, shortened: as §1

[21] = target: Gal(b1-4)GlcNAc(b1-3)[Gal(b1-4)GlcNAc(b1-6)]Gal(b1-4)GlcNAc
Procedure, shortened: as §1

[22] = target: Gal(b1-4)GlcNAc(b1-3)[GlcNAc(b1-6)]Gal(b1-4)GlcNAc
Procedure, shortened: as §1

B1: Cp ZmpB (Clostridium perfringens), Q0TR08 (protein)
chain: MNKRKIAAIILATMITNLSATTIDVLAQELNTKNNSKVEVSHDDESHQARVSKFDLYNSDKLDAYNQEFQVSRSNIKSINNNGGKYNSSTIDKAIDGNLETHWETGKPNDANFTNEVVVTFNEITNIDRIVYSARRDSARGKGFAKEFEIYASLKDEGDDFNLVSSGEYTESTRDLVEIKFNPTDFKRLKFKFKKADQNWASAAEFMFYKEDKLNEKFNGLFTDSSMNKVSEEFNTLEKLNAFENELKDHPIYDLYKEGLNNARAILTETSENPTKATLGQITYNLNDDYNNQYRMPYKNIKAIKNNGRHYAAQNIEKAIDNDVNTYWETGTLNSSSFNNEVEVEFNDLVTLDRIVYGSRQSDLKGFAEEVYIYASRTSKGDTYKLVATGAHEATKGLVEAKFEPTEFKRVKFKFKKSKQNSATLNELMFYKPDEVYSSIPKLFTDGTMSELSEEFNSLEKINAFKEKAKNHPLYNDFNETIELAESLISNPRKEDVLELEMRGDSISEAKKRKVWNFQDWQITGLSARAGDKITVYVDVAEGDPTPTLLYKQSLTQHGGATSFQLKPGKNEITIPEINYESNGIPKDVIQGGDLFFTNYKSDSQKRAPKVRIEGASKYPVFILGKSDENEVMKELEAYVEKIKAEPKTTPNIFAVSSNKSLEFVQATYALDWYKKNNKTPKYTAEQWDQYIADAMGFWGFDNSKDVNSDFNFRIMPMVKNLSGGAFMNAGNGVIGIRPGNQDAILAANKGWGVAHELGHNFDTGGRTIVEVTNNMMPLFFESKYKTKTRITDQNIWENNTYPKVGLDDYSNNELYNKADSTHLAQLAPLWQLYLYDNTFYGKFERQFRERDFGNKNREDIYKSWVVAASDAMELDLTEFFARHGIRVDDKVKEDLAKYPKPDKKIYYLNDLAMNYKGDGFTENAKVSVSTSGSNGNIKLSFSVDDENKDNILGYEIRRDGKYVGFTSNDSFVDTKSNLDEDGVYVVTPYDRKLNTLNPIEVNALQPTLSVNPVITLALGEEFNEEEYIVAKDIKGNSLSESVKVKSSNVNTSKVGEYEVLYSLEDSKGNEYTKTSKVNVVSRKEYMSDLTPKQSSNGWGTVRKDKSISGGVIGLTRDGDFVDYNKGLGLHSNAEYVYDLEGKDYDYFESYVGVDKAMSSRPASSVIFKVLVDGEEKFNSGVMRSTTPQKYVKVDVKNAKELKLIVNDAGDGDSSDHASFGDAKLATLSSKPIIKGENLAYSMDEKVDLMKGITATDIEDGNITSKVQIKSSDFVEGKSGIFTVVYSVTDSDGLTSECSRTIAVTDKETQLSDLNWKSATIGSGSVRKDRAVSGNQIRLLNEDNSVETFAKGIGTHSYSEIVYNSEGYDIFDTWVGIDRHVADKKVSSVKFKVYVDGELKAETDVMRIDTPKKRLVVDVRNSKEIKLVVDVADNGNNWDHADWADAKFRNLAEYDASELNKAIEEAKKLDLNNYTEESSEALKNAISKGEEALLSKDKETINSALEELNKEMNSLVKVDLNAVINIPDKYLLKSIQNQLNKTGDITLGDMYSLTTLTLSGVEDLTGLENAKNLETLNMDYNEVKDLRPLSKLKKLNTLNAQEQFIAAGELKPSNGKVIGDSKVYNREGKNVAKTIRVVDKNGNTILEQDAKDEFTINTKDLSSGLYGVHVLFEDEGFSGVMFYLFNV
glycan array binding signal (z-score) [1]: 0.099
glycan array binding signal (z-score) [2]: 0.278
glycan array binding signal (z-score) [3]: -0.328
glycan array binding signal (z-score) [4]: -0.425
glycan array binding signal (z-score) [5]: 0.247
glycan array binding signal (z-score) [6]: 0.142
glycan array binding signal (z-score) [7]: -0.102
glycan array binding signal (z-score) [8]: 0.116
glycan array binding signal (z-score) [9]: 0.237
glycan array binding signal (z-score) [10]: -0.093
glycan array binding signal (z-score) [11]: -0.374
glycan array binding signal (z-score) [12]: 0.666
glycan array binding signal (z-score) [13]: 3.56
glycan array binding signal (z-score) [14]: 0.497
glycan array binding signal (z-score) [15]: -0.02
glycan array binding signal (z-score) [16]: -0.373
glycan array binding signal (z-score) [17]: 0.206
glycan array binding signal (z-score) [18]: -0.332
glycan array binding signal (z-score) [19]: -0.387
glycan array binding signal (z-score) [20]: -0.391
glycan array binding signal (z-score) [21]: -0.301
glycan array binding signal (z-score) [22]: 0.178
